Assay results from patent US9085531B2 (priority 2004, dated 2015).

Experiments:
[1] = molecular target: human DA transporter (DAT) (Homo sapiens (Human), UniProt Q01959); conditions: read-out: Ki, nM DAT; Table 2; inhibition of radioligand binding at the human transporter
[2] = molecular target: human 5HT transporter (5HTT, SERT) (Homo sapiens (Human), UniProt P31645); conditions: read-out: Ki, nM SERT; Table 2; inhibition of radioligand binding at the human transporter

| SMILES | Ki [1] | Ki [2] |
| --- | --- | --- |
| CN1Cc2cc(-c3cccnn3)ccc2C(c2cc3ccccc3o2)C1 (racemic) [Example 117, (+/−)-4-benzofuran-2-yl-2-methyl-7-pyridazin-3-yl-1,2,3,4-tetrahydroisoquinoline] | 41.3 nM | 4.1 nM |
| COc1c(C2CN(C)Cc3cc(-c4ccc(C)nn4)ccc32)ccc2sccc12 (single isomer, unassigned; (+)) [Example 84, (+)-4-(4-Methoxy-benzothiophen-5-yl)-2-methyl-7-(6-methyl-pyridazin-3-yl)-1,2,3,4-tetrahydroisoquinoline] |  | 12.9 nM |
| CN1Cc2cc(-c3cccnn3)ccc2C(c2ccc3sccc3c2)C1 (single isomer, unassigned; (+)) [Example 97, (+)-4-benzo[b]thiophen-5-yl-2-methyl-7-pyridazin-3-yl-1,2,3,4-tetrahydroisoquinoline] |  | 2.2 nM |
| CN1Cc2cc(-c3cccnn3)ccc2C(c2cc3ccccc3s2)C1 (stereo not drawn) [Example 70] | 119 nM | 2.2 nM |
